{"source": "PubChem BioAssay AID540267", "about": "(National Center for Advancing Translational Sciences (NCATS), 2011)", "note": "The campaign covered roughly 340,000 compounds. About 530 (0.16%) were called active. Inconclusive means that the source gave no clear call. Such entries were picked first, then a sample of the others. No stated cut-off is given here; in the data, active means activity change below about -80%; inconclusive means between about -30% and that limit; inactive means weaker than that. On the % scale 0 is the no-effect control and ±100 the full control effect.", "data": [{"test": "Small Molecules that selectively kill Giardia lamblia: qHTS;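 further: parasites exposed to compound for two days anaerobically before the ATP read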", "conditions": "Giardia lamblia trophozoite viability; at 7.66 µM; hits give low values", "in_short": "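Each well holds 100 Giardia trophozoites and compound. After two days (48 hrs) at 37 deg C in anaerobic conditions, ATP is quantified by luminescence.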", "values": [{"smiles": "Cc1[nH]nc(SCC(=O)NC2CCCCC2)c1[N+](=O)[O-]", "activity change": "inconclusive: -33.7% [inhibitor]"}, {"smiles": "CCOC(=O)[C@H]1[C@H]2COc3ccc(OC)cc3[C@@H]2N2C(=O)CN(Cc3ccc(Cl)cc3)C(=O)[C@@]12C", "activity change": "inconclusive: -35.7% [inhibitor]"}, {"smiles": "O=C(NNC(=O)c1cc2ccccc2[nH]1)OCc1ccccc1", "activity change": "inconclusive: -39.5% [inhibitor]"}, {"smiles": "CCN1CCN(CCCNC(=O)C2CCN(c3nnc(-n4cccc4)s3)CC2)CC1", "activity change": "inconclusive: -31.2% [inhibitor]"}, {"smiles": "O=C(c1ccc(Cl)cc1)N1CCCCC(Sc2nnc(-c3ccc4c(c3)OCO4)o2)C1=O", "note": "(centres undefined)", "activity change": "inconclusive: -39.4% [inhibitor]"}, {"smiles": "O=C1/C(=C/c2ccccc2O)SC(=S)N1Cc1cccnc1", "activity change": "inactive: 13.6%"}, {"smiles": "Cc1csc2nc(CNC(=O)C3CCCCC3)cn12", "activity change": "inconclusive: -35% [inhibitor]"}, {"smiles": "CC(C)CCN1CCN(Cc2ccon2)CC1CCO", "note": "(centres undefined)", "activity change": "inconclusive: -33.2% [inhibitor]"}, {"smiles": "O=C1N/C(=C/c2ccc(N3CCOCC3)o2)C(=O)N1c1ccccc1", "activity change": "inconclusive: -38.5% [inhibitor]"}, {"smiles": "Cc1ccc(SC(c2ccccc2)C(Cn2cncn2)C(=O)c2ccccc2)cc1", "note": "(centres undefined)", "activity change": "inconclusive: -34.3% [inhibitor]"}, {"smiles": "O=c1[nH]nc(Cc2ccc([N+](=O)[O-])cc2)c2ccccc12", "activity change": "inconclusive: -31% [inhibitor]"}, {"smiles": "Cc1nc2c3cc(F)ccc3n(CCN3CCCCC3)c2s1", "activity change": "inconclusive: -32.6% [inhibitor]"}, {"smiles": "O=[N+]([O-])c1cncn1CCN1CCOCC1", "activity change": "active: -90.7%"}, {"smiles": "CCOC(=O)c1ccc(NC(=O)c2nc[nH]c2C(=O)NC2CCN(C(=O)OC(C)(C)C)CC2)cc1", "activity change": "inconclusive: -39.3% [inhibitor]"}, {"smiles": "O=[N+]([O-])c1ccc2[nH]c3c(c2c1)CCCC3", "activity change": "inactive: 10.8%"}, {"smiles": "Cc1ccc([N+](=O)[O-])cc1NC(=O)C1CCN(S(C)(=O)=O)CC1", "activity change": "inconclusive: -51.2% [inhibitor]"}, {"smiles": "Cc1ccc(NC(=O)c2ccc(S(=O)(=O)N3CCCCC3)cc2)cc1", "activity change": "inactive: 3.08%"}, {"smiles": "CC(=O)c1ccc(S(=O)(=O)Nc2ccc(C(=O)N3CCC3)cc2)cc1", "activity change": "inconclusive: -30.7% [inhibitor]"}, {"smiles": "O=C(Nc1nccs1)c1ccc([N+](=O)[O-])cc1Cl", "activity change": "inconclusive: -36.4% [inhibitor]"}, {"smiles": "O=c1c(-c2cccc([N+](=O)[O-])c2)[n+]([O-])c2ccccc2n1O", "activity change": "inconclusive: -47.8% [inhibitor]"}, {"smiles": "Nc1ncnc2nc(SCc3ccccc3)[nH]c12", "activity change": "inconclusive: -35.4% [inhibitor]"}, {"smiles": "Cc1[nH]cnc1C(=O)N/N=C/c1ccc([N+](=O)[O-])s1", "activity change": "inconclusive: -37.9% [inhibitor]"}, {"smiles": "CN1OC[C@@H]2CN[C@H](c3cccc(-c4ccccc4)c3)C[C@@H]21", "activity change": "inconclusive: -37.2% [inhibitor]"}, {"smiles": "Cc1ccnc(NS(=O)(=O)c2ccc(NC(=O)C3C4C=CC(C4)C3C(=O)O)cc2)n1", "note": "(centres undefined)", "activity change": "inactive: 11.2%"}, {"smiles": "N=c1c2ccccc2nnn1-c1ccccc1[N+](=O)[O-]", "activity change": "inconclusive: -34.9% [inhibitor]"}, {"smiles": "CCC(C(=O)NC1CCCCC1)n1c(SCc2cccc(C)c2)nc2ccncc21", "note": "(centres undefined)", "activity change": "inactive: -15.2%"}, {"smiles": "CCn1cc(-c2cc(C(=O)O)c3ccccc3n2)cn1", "activity change": "inconclusive: -58.5% [inhibitor]"}, {"smiles": "Cc1ccc(-c2csc(NC(=O)c3ccc([N+](=O)[O-])o3)n2)cc1", "activity change": "active: -95.3%"}, {"smiles": "O=C(CSc1n[nH]c(=O)[nH]c1=O)Nc1cccc(S(=O)(=O)N2CCOCC2)c1", "activity change": "inconclusive: -34.7% [inhibitor]"}, {"smiles": "Cn1c(/C(C#N)=C(\\O)c2ccc([N+](=O)[O-])s2)nc2ccccc21", "activity change": "active: -86.1%"}, {"smiles": "C=CCn1c(C)cc(C2=NNC(=NC(C)(C)C)SC2)c1C", "activity change": "inconclusive: -30.9% [inhibitor]"}, {"smiles": "Cc1nnc2sc(SCC(=O)Nc3ccc(Br)cc3)nn2c1=O", "activity change": "inactive: 4.89%"}, {"smiles": "COc1cc2c(cc1OC)C1(Nc3c-2c(-c2ccccc2)nn3-c2ccccc2)C(=O)Nc2ccccc21", "note": "(centres undefined)", "activity change": "inactive: -14.6%"}, {"smiles": "Cn1cc(CN2CCC(C(=O)Nc3cccc(-c4cccc(F)c4)c3)CC2)cn1", "activity change": "inactive: 22.4%"}, {"smiles": "Cc1ccc(C=Nc2ccccc2C(N)=O)cc1", "activity change": "inconclusive: -36.8% [inhibitor]"}, {"smiles": "CCOC(=O)c1c(NS(=O)(=O)c2ccc(Br)cc2)sc2c1CCC2", "activity change": "inconclusive: -34.5% [inhibitor]"}, {"smiles": "CN1CCc2cc(Cl)c(O)cc2[C@@H](c2ccccc2)C1", "activity change": "inconclusive: -32.7% [inhibitor]"}, {"smiles": "Nc1nc(-c2ccccc2)c(-c2ccccc2)s1", "activity change": "inactive: -6.01%"}, {"smiles": "Cn1c(N)c(C(=O)Nc2ccc(-c3ccccc3)cc2)sc1=S", "activity change": "inactive: -0.548%"}, {"smiles": "Cc1ccc(Cl)cc1NC(=O)Cn1cc2c(n1)CCCC2", "activity change": "inconclusive: -37.9% [inhibitor]"}, {"smiles": "COC(=O)CSC1=C(C#N)C(=O)NC(c2ccccc2)S1", "note": "(centres undefined)", "activity change": "inactive: 1.07%"}, {"smiles": "Cc1cc(=O)oc2c3c(cc(OCC(=O)N[C@H](C(=O)O)c4ccccc4)c12)OC(C)(C)CC3", "activity change": "inconclusive: -40.1% [inhibitor]"}, {"smiles": "CC(=O)NC(Cc1cccc(C)c1)C(=O)NC1CCN(c2ncccc2[N+](=O)[O-])CC1", "note": "(centres undefined)", "activity change": "inconclusive: -47.5% [inhibitor]"}, {"smiles": "c1ccc(Nc2nc(N3CCCC3)nc(N3CCCC3)n2)cc1", "activity change": "inactive: 10.8%"}, {"smiles": "CCOc1ccc2nc(NC(=O)c3c([N+](=O)[O-])cnn3CC)sc2c1", "activity change": "inconclusive: -54% [inhibitor]"}, {"smiles": "Cc1ccc(C(=O)CC(c2cccs2)S(=O)(=O)c2ccc(C)cc2)cc1", "note": "(centres undefined)", "activity change": "inconclusive: -42.2% [inhibitor]"}, {"smiles": "Cc1cc(/C=N/n2c(COc3ccccc3C)nc3ccccc3c2=O)c(O)c([N+](=O)[O-])c1", "activity change": "inactive: 1.05%"}, {"smiles": "CCOC(=O)C(=O)c1csc(NC(=O)CCSc2ccc(C)cc2)n1", "activity change": "inactive: -5.65%"}, {"smiles": "COC(=O)[C@H](CCSC)NC(=O)Cn1cnc(C(=O)Nc2ccc(C)c(C)c2)n1", "activity change": "inconclusive: -34.4% [inhibitor]"}, {"smiles": "O=C(Nc1ccc(NC(=S)NC(=O)c2cccs2)cc1)c1ccccc1", "activity change": "inactive: -21.6%"}, {"smiles": "CC(C)NC(=O)c1ccc2c3n(nc2c1)-c1ccccc1CO3", "activity change": "inconclusive: -79.7% [inhibitor]"}, {"smiles": "C/C(=N\\NC(=O)Cn1cc([N+](=O)[O-])cn1)c1ccco1", "activity change": "inconclusive: -31.5% [inhibitor]"}, {"smiles": "CCCC(=O)Nc1nnc(-c2ccco2)s1", "activity change": "inactive: 7.59%"}, {"smiles": "O=C1NC(=S)S/C1=C\\C=C\\c1ccc([N+](=O)[O-])o1", "activity change": "active: -85.8%"}, {"smiles": "O=C(N/N=C\\c1ccco1)Nc1cccc(Cl)c1", "activity change": "inconclusive: -36.4% [inhibitor]"}, {"smiles": "COc1ccc(-c2nc(Cc3ccc(Cl)cc3)no2)cc1OC", "activity change": "inconclusive: -36.6% [inhibitor]"}, {"smiles": "CCOC(=O)c1cccc(C2=CC(=O)C[C@H](c3ccc(OC)c(OC)c3)C2)c1", "activity change": "inactive: -4.33%"}, {"smiles": "O=C(NNS(=O)(=O)c1ccc(F)cc1)c1ccccc1F", "activity change": "inactive: -15.6%"}, {"smiles": "Cc1cccc(NC(=O)C2CCN(c3nc(C)cc(C)n3)CC2)c1", "activity change": "inconclusive: -41.8% [inhibitor]"}, {"smiles": "Cc1ccc(C#N)c(SCc2cc3c(cc2Cl)OCO3)n1", "activity change": "inconclusive: -32.4% [inhibitor]"}, {"smiles": "CSc1nnc(NC(=O)c2ccc3c(c2)OCO3)s1", "activity change": "inconclusive: -66.7% [inhibitor]"}, {"smiles": "Cn1c(-c2ccco2)nc2cc3ccccc3cc21", "activity change": "active: -82.6%"}, {"smiles": "Cc1ccc(S(=O)(=O)CC(=O)Nc2ccc3nc(C)sc3c2)cc1", "activity change": "inactive: 6.5%"}, {"smiles": "COc1cc(OC)c2c(c1)OC(=O)CC2c1ccc2c(c1)OCO2", "note": "(centres undefined)", "activity change": "inconclusive: -32.4% [inhibitor]"}, {"smiles": "Cc1ccc(S(=O)(=O)NCc2ccc(C(=O)N3CCN(c4ccccn4)CC3)cc2)cc1", "activity change": "inactive: 4.49%"}, {"smiles": "CCN1C(=O)[C@@H]2[C@@H](c3ccc(-c4ccc(F)cc4)c(OC)c3)N3CCC[C@@]3(C(=O)OC)[C@@H]2C1=O", "activity change": "inactive: 36.7%"}, {"smiles": "COc1ccc(CC(=O)Nc2ncc([N+](=O)[O-])s2)cc1OC", "activity change": "active: -89.4%"}, {"smiles": "Cc1ccc(NC(=O)C(C)NS(=O)(=O)c2ccc(F)cc2)cc1C", "note": "(centres undefined)", "activity change": "inconclusive: -44% [inhibitor]"}, {"smiles": "S=C(NCCCN(Cc1ccc(Cl)cc1)c1ccc(Br)cn1)NCc1ccc2nc[nH]c2c1", "activity change": "inactive: 13.2%"}, {"smiles": "CC(=O)c1ccc(NS(=O)(=O)c2ccc(C(C)(C)C)cc2)cc1", "activity change": "inconclusive: -32.3% [inhibitor]"}, {"smiles": "Cc1cccc(NC(=O)CN2C(=O)CCS(=O)(=O)c3ccccc32)c1C", "activity change": "inactive: -11.4%"}, {"smiles": "COc1ccc(COCCN2CCN(S(=O)(=O)c3ccc(C)cc3)CCC2=O)cc1", "activity change": "inconclusive: -37.3% [inhibitor]"}, {"smiles": "COc1cccc(NC(=O)c2ccccc2Br)c1", "activity change": "inconclusive: -38.3% [inhibitor]"}, {"smiles": "C#CCN1C=CC(=O)[C@@H](OC(=O)Nc2ccc(Br)cc2)[C@H]1c1ccccc1Br", "activity change": "inconclusive: -39.1% [inhibitor]"}, {"smiles": "COc1cc(/C=C2\\CCCc3c2nc2ccccc2c3C(=O)O)cc(OC)c1O", "activity change": "inactive: -6.44%"}, {"smiles": "O=C(c1ccc2c3c(cccc13)CC2)C1CCCN(Cc2ccc(OCCO)cc2)C1", "note": "(centres undefined)", "activity change": "inconclusive: -54.9% [inhibitor]"}, {"smiles": "CCNC(=S)N(CCc1cccc(C)c1)Cc1cc2cc(OC)c(OC)cc2[nH]c1=O", "activity change": "inconclusive: -38.4% [inhibitor]"}, {"smiles": "O=C(O)CCC(=O)NNC(=O)c1cccc(Br)c1", "activity change": "inactive: 1.04%"}, {"smiles": "CC1CCN(CC(=O)n2c3c(c4ccccc42)CCCC3)CC1", "activity change": "inactive: 2.43%"}]}]}
